# In all, about 310,000 compounds went through this assay and about 14,000 (4.5%) showed an effect of 50% or more. Effects have a minus sign here. This is one part of the list.
# Target: human ether-à-go-go-related gene (hERG) potassium channel (human, UniProt Q12809)
# Experiment: primary screen, population patch clamp on CHO cells stably expressing hERG
# 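Note: peak tail current of the secondary pulse compared with the same well before compound.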
# Chain of human ether-à-go-go-related gene (hERG) potassium channel (Q12809 whole entry, looked up): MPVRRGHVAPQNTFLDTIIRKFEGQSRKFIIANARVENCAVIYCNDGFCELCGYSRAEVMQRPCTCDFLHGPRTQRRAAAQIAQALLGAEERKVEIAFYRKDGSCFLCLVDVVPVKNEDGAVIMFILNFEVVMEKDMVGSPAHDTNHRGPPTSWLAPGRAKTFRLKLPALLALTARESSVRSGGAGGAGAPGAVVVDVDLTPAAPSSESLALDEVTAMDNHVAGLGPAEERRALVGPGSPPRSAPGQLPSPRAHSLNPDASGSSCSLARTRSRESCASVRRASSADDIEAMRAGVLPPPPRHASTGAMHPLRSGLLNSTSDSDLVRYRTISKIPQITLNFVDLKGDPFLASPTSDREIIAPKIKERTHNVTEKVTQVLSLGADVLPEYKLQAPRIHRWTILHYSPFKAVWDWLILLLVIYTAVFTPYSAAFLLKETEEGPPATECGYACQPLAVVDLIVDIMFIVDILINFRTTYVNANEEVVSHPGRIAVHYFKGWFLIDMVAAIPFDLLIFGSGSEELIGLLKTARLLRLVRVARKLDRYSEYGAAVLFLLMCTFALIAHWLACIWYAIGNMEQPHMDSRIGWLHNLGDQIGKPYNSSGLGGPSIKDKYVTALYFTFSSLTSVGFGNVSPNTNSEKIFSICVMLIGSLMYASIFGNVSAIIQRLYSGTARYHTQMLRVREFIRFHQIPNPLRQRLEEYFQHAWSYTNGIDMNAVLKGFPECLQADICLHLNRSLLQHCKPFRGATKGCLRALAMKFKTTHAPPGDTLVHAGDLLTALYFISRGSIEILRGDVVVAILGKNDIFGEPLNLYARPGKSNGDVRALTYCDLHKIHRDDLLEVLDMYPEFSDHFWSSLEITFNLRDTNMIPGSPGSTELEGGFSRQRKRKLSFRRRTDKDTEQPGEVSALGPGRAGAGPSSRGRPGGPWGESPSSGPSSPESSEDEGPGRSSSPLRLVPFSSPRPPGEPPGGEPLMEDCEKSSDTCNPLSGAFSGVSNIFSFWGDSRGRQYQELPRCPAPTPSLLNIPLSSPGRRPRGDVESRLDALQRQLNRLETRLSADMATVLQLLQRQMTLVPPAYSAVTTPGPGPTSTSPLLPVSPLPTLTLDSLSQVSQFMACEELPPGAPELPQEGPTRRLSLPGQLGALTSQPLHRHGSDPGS
row,SMILES,"hERG current change (%, negative = inhibition) at 10uM"
1,CCCCC(=O)NC(c1ccccc1)c1ccc2cccnc2c1O (stereo not drawn),-3.76%
2,COc1ccc(S(=O)(=O)N2CCCC(C(=O)NC3CC3)C2)cc1OC (stereo not drawn),-3.52%
3,CCn1cc(/C=N/NC(=O)COc2cccc3cccnc23)c2ccccc21,8.01%
4,COc1cc(C(=O)COC(=O)C2CCN(c3ccc(C(F)(F)F)cn3)CC2)ccc1OC(F)F,-59.1%
5,CC(C)(C)Nc1nc(SCc2ccccc2)nc(N2CCOCC2)n1,-10.5%
6,CC1CCN(Cc2ccc(NC(=O)C3CCN(c4nnc(-n5cccc5)s4)CC3)cc2)CC1,1.05%
7,CCOC(=O)C1=C(CNC(C)(C)CC(C)(C)C)NC(=O)NC1c1cccc([N+](=O)[O-])c1 (stereo not drawn),-25.2%
8,CCN(CC)c1ccc(C(=O)OCC(=O)N(C(C)C)C(C)C)cc1,-3.71%
9,Cc1cccc(NC(=O)CS(=O)(=O)Cc2ccccc2)n1,2.58%
10,COc1ccc(C(=O)NCCNC(=O)c2ccc(OC)cc2)cc1,9.79%
11,Cc1c(C)c(C)c(CN2CCSCC2)c(C)c1C,18.4%
12,COCCOc1ccc(C(F)(F)F)cc1NC(=O)CN1C(=O)NC2(CCc3ccccc32)C1=O (stereo not drawn),-9.36%
13,CCOCC(=O)Nc1cc(C(=O)Nc2cccc(C)c2C)ccc1Cl,8.85%
14,Oc1ccccc1CN1CCCC(N2CCc3ccccc3C2)C1 (stereo not drawn),-38.8%
15,O=C(O)C1CCCCC1C(=O)Nc1ccc(OCc2ccccc2)cc1 (stereo not drawn),17.6%
16,COCCNC(=O)Cn1cc(/C=C2\C(=O)NC(=O)N(c3cccc(C)c3C)C2=O)c2ccccc21,3.61%
17,CCCCn1c(N)c(N(Cc2ccccc2OC)C(=O)c2sccc2C)c(=O)[nH]c1=O,10.2%
18,CC(C)(C)N(Cc1ccccc1)C(=O)COC(=O)CN1C(=O)C2CC=CCC2C1=O (stereo not drawn),11.7%
19,O=C(Cc1ccccc1)NC(=S)Nc1ccc2oc(-c3ccccc3F)nc2c1,-3.17%
20,COc1ccc(Cl)cc1C(=O)Nn1cnc2ccccc2c1=O,-8.82%
21,O=C(CCC(=O)Nc1ccc(F)cc1)N/N=C/c1ccc(F)cc1,13.1%
22,Cc1cc(-c2ccccc2)n(-c2ccc(C(N)=O)cc2)n1,4.7%

row,SMILES,"hERG current change (%, negative = inhibition) at 10uM"
1,Cc1noc(C)c1COc1ccccc1C(=O)NCc1ccccc1Cl,-16.8%
2,COc1ccc(C(=O)NCC(=O)NCC(=O)OCC(=O)c2ccc(Br)cc2)cc1,15.3%
3,COc1ccc(NC(=O)CSc2nnc(Cn3cnc4ccccc43)o2)cc1,6.83%
4,CC(C)Cn1c(N)c(C(=O)CSc2nc3ccccc3n2C)c(=O)n(C)c1=O,-10.4%
5,CN1CCN(S(=O)(=O)c2cccc([N+](=O)[O-])c2)CC1,18.7%
6,CN(CC(=O)Nc1ccccc1Br)C(=O)CNC(=O)Cc1cccc2ccccc12,26.5%
7,O=C(Cc1ccc(F)cc1)N1CCN=C1SCc1cccc([N+](=O)[O-])c1,-27.7%
8,CC(C)c1ccc(NC2=NCC(=O)N2Cc2cccs2)cc1.Cl,-4.49%
9,Cc1ccccc1N1CCN(C2CCCN(C(=O)c3ccnn3C)C2)CC1 (stereo not drawn),0.102%
10,CCCc1nnc2c(N(C)S(=O)(=O)c3ccccc3)nc3ccccc3n12,11%
11,COc1ccccc1/C=N/NC(=O)COCC(=O)N/N=C/c1ccccc1OC,3.56%
12,Cn1c(N)c(C(=O)COC(=O)c2ccc3c(c2)OCCO3)c(=O)n(C)c1=O,1.14%
13,COc1ccccc1C(=O)NCCC(=O)NC(C)c1ccc(-n2ccnc2)cc1 (stereo not drawn),-17.1%
14,O=C(/C=C/c1ccc(-c2ccc(F)cc2)o1)N1CCCC1,-5.18%
15,CCOC(=O)N1CCN(Cc2nc3cc(NC(C)=O)ccc3n2C)CC1,25%
16,Cc1cc(C)nc(N2CCCC(CCC(=O)NCc3ccc(F)c(F)c3)C2)n1 (stereo not drawn),-1.25%
17,COc1ccc(C(=O)C2CCCN(Cc3ccc(F)cc3F)C2)cc1F (stereo not drawn),-29.8%
18,Nc1[nH]n2c(=O)cc(-c3ccccc3)nc2c1N=Nc1ccc2c(c1)OCO2,21%
19,O=C1CCCC2=C1C(c1ccc(OS(=O)(=O)c3ccc(Cl)cc3)cc1)C1=C(CCCC1=O)O2,-17.4%
20,O=C(/C=C/c1ccco1)Nc1cc(Cl)ccc1C(=O)O,-10.3%
21,CC1(C)CC(=O)C=C(OC(=O)c2ccc(Cl)cc2)C1,13.4%
22,CC1(C)CC(=O)C(N=Nc2ccc(-c3ccccc3)cc2)=C(O)C1,12.5%

row,SMILES,"hERG current change (%, negative = inhibition) at 10uM"
1,CSc1ccc(CNC(=O)C2Cc3cc(S(=O)(=O)N4CCCCC4)ccc3N2C(C)=O)cc1 (stereo not drawn),-57.1%
2,CCc1nc2ccccc2c(C(=O)OCC(=O)NCc2ccco2)c1C,-8.75%
3,CCCCNC(=O)Cn1cnc([N+](=O)[O-])n1,10.8%
4,CCOC(=O)c1sc(=NC(=O)CCSc2ccccc2)n(C)c1C,-11.8%
5,COc1cc(OC)cc(C(=O)N[C@H](C(=O)NCc2ccccc2)C(C)C)c1,7.08%
6,O=S(=O)(c1ccccc1)c1nc(-c2ccccc2)oc1N1CCOCC1,4.6%
7,CCN(CC)CCNC(=O)C(=O)NCC1OCCN1S(=O)(=O)c1ccc(Cl)cc1 (stereo not drawn),2.55%
8,COc1ccc2nccc(C(N)=O)c2c1,-12.8%
9,O=c1c2ccccc2nc2c3ccccc3c(NCCO)nn12,-7.34%
10,O=C(COc1ccc([N+](=O)[O-])cc1)N/N=C/c1ccccn1,-20.9%
11,COc1ccccc1C1CC2CCC(C1OC(C)=O)N2Cc1ccccc1 (stereo not drawn),-10.2%
12,COc1ccccc1C(=O)Nc1ccc(OCC(=O)N2CC(C)OC(C)C2)cc1 (stereo not drawn),8.05%
13,Cc1ccc(S(=O)(=O)NCC2CCC(C(=O)NCc3cccnc3)CC2)cc1 (stereo not drawn),-21.5%
14,O=C(COC(=O)c1ccccc1O)Nc1cccc(S(=O)(=O)N2CCCC2)c1,-16.5%
15,CC1(C(=O)NC(=S)N(CCC#N)Cc2cccnc2)CC1(Cl)Cl (stereo not drawn),27.8%
16,CCOc1ccc(CNCCc2ccc3c(c2)OCO3)cc1,-77.2%
17,O=c1c2ccccc2ncn1Cc1ccccc1,1.28%
18,COc1ccc(CCNC(=O)C/C(C)=N/NC(=O)c2ccc(N)cc2)cc1OC,-8.42%
19,COCCOc1ccc(C(F)(F)F)cc1NC(=O)COC(=O)Cc1c[nH]c2ccccc12,-11.9%
20,COc1ccc(/C=N/n2cnn(Cc3ccccc3Cl)c2=S)cc1,0.0914%
21,CC1CC(C)CN(C(=O)CNC(=O)c2ccc3ccccc3c2)C1 (stereo not drawn),-12.5%
22,CCOC(=O)N1CCN(C(=O)/C(=C/c2cccs2)NC(=O)c2ccc(OC)c(OC)c2)CC1,-71.2%

row,SMILES,"hERG current change (%, negative = inhibition) at 10uM"
1,CC(C)(C#N)Cc1cc(CC(C)(C)C#N)cc(C(C)(C)C)c1,11.1%
2,Cc1ccc(CCNC(=O)CN(C)S(=O)(=O)c2cnc[nH]2)cc1,-10.6%
3,N#Cc1ccccc1Cn1c(=O)n(Cc2ccc(C(=O)NCc3ccco3)cc2)c(=O)c2ccccc21,-6.39%
4,O=C1OC(c2ccccc2)c2ccc3ccccc3c21 (stereo not drawn),16.9%
5,CCN(C(=O)CN1CCN(S(=O)(=O)c2cc(Cl)ccc2Cl)CC1)c1c(N)n(Cc2ccccc2)c(=O)[nH]c1=O,-7.08%
6,Cc1c(/C=N\NC(=O)c2cccc(F)c2)cnn1C,9.4%
7,CC(C)(C)C(=O)NC(=S)Nc1ccccn1,19.7%
8,Cc1ccc(NC(=O)CCNC(=O)c2ccc(Br)cc2)cc1S(=O)(=O)N1CCOCC1,-5.63%
9,COc1ccc(N(C(=O)C(C)C)S(=O)(=O)c2cccc([N+](=O)[O-])c2)cc1,-2.07%
10,O=C(CSc1nc2ccccc2c(=O)n1-c1ccc(F)cc1F)c1c[nH]c2ccccc12,-2.65%
11,COc1ccc(C2CC(c3ccc(Br)cc3)=NN2C(=O)CN2CCCC2)cc1 (stereo not drawn),-68.1%
12,Nc1ccccc1SCC(=O)Nc1ccc(N2CCOCC2)cc1,-2.68%
13,CCCS(=O)(=O)N1CCCC(C(=O)NCCCOCC)C1 (stereo not drawn),-4.05%
14,COc1ccc(CNC(=S)NCc2ccc(F)cc2)cc1OC,-0.604%
15,CN1CCN(c2ncccc2S(=O)(=O)N2CCCCC2)CC1,5.29%
16,Cc1ccc(NC(=O)N2CCCC2c2cccs2)cc1 (stereo not drawn),7.41%
17,Cc1nn(CC2CC2)c(=O)n1-c1ccc(Cl)cc1,-3.1%
18,CCNS(=O)(=O)c1ccc(OC)c(C(=O)NC2CCCCC2)c1,13.6%
19,CCc1ccc(OCCNC(=O)c2ccco2)cc1,-2.49%
20,C/C(=C\c1ccc(Br)cc1)C(=O)c1c(C)cc(C)[nH]c1=O,8%
21,COC(=O)CSc1nnc(-c2ccncc2)n1N,22.7%

# — publication PMC4336329 (PLoS ONE, 2015)
